37 compounds from patent US7160888B2, “[1,8]naphthyridin-2-ones and related compounds for the treatment of schizophrenia” (Warner Lambert Company LLC, priority 2003, dated 2007) can be followed below.

In one assay the target is dopamine D2 receptor (Homo sapiens, UniProt P14416). The experiment in a line: biochemical. The settings on record: D2 Ki (nM), Table 1; 0.4 nM [3H]spiperone, CHO-hD2L membranes.
Chain of UniProt P14416 (P14416 whole entry): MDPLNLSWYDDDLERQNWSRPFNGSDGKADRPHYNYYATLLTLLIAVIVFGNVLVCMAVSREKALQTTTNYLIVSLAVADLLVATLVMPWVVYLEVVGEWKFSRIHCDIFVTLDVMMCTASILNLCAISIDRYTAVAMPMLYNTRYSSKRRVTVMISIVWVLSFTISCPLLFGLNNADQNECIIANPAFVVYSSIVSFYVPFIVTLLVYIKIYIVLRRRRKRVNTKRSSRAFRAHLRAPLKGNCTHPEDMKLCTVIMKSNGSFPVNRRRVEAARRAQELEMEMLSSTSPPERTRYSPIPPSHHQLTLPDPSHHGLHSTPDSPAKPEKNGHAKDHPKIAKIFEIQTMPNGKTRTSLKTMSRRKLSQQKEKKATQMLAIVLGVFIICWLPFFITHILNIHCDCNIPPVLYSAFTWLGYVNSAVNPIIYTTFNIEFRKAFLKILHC
Compound `CC(F)(F)c1ccccc1N1CCN(CCCCOc2ccc3ccc(=O)[nH]c3n2)CC1` [Example B17, 7-(4-{4-[2-(1,1-Difluoro-ethyl)-phenyl]-piperazin-1-yl}-butoxy)-1H-[1,8]naphthyridin-2-one] registered a Ki of 1.7 nM.
The same measure, in the same setting: the value for `COc1cccc(N2CCN(CCCCOc3ccc4ccc(=O)[nH]c4n3)CC2)c1Cl` [Example B18, 7-{4-[4-(2-Chloro-3-methoxy-phenyl)-piperazin-1-yl]-butoxy}-1H-[1,8]naphthyridin-2-one] was 3 nM; that for `CCOc1cccc(N2CCN(CCCCOc3ccc4ccc(=O)[nH]c4n3)CC2)c1Cl` [Example B19, 7-{4-[4-(2-Chloro-3-ethoxy-phenyl)-piperazin-1-yl]-butoxy}-1H-[1,8]naphthyridin-2-one] was 4.6 nM; that for `CC(C)Oc1cccc(N2CCN(CCCCOc3ccc4ccc(=O)[nH]c4n3)CC2)c1Cl` [Example B20, 7-{4-[4-(2-Chloro-3-isopropoxy-phenyl)-piperazin-1-yl]-butoxy}-1H-[1,8]naphthyridin-2-one] was 13 nM.
Regarding `Cc1cccc(N2CCN(CCCCOc3ccc4ccc(=O)[nH]c4n3)CC2)c1Oc1ccccc1` [Example B21, 7-{4-[4-(3-Methyl-2-phenoxy-phenyl)-piperazin-1-yl]-butoxy}-1H-[1,8]naphthyridin-2-one], the Ki came out at 6.7 nM.
On to `O=c1ccc2ccc(OCCCCN3CCN(c4cccc(Cl)c4F)CC3)nc2[nH]1` [Example B22, 7-{4-[4-(3-Chloro-2-fluoro-phenyl)-piperazin-1-yl]-butoxy}-1H-[1,8]naphthyridin-2-one], for which the affinity, expressed as Ki, was 1 nM.
The same measure, in the same setting: next, `O=c1ccc2ccc(OCCCCN3CCN(c4ccc(F)cc4Cl)CC3)nc2[nH]1` [Example B23, 7-{4-[4-(2-Chloro-4-fluoro-phenyl)-piperazin-1-yl]-butoxy}-1H-[1,8]naphthyridin-2-one]: 2.5 nM; `O=c1ccc2ccc(OCCCCN3CCN(c4ccc(F)c(Cl)c4Cl)CC3)nc2[nH]1` [Example B24, 7-{4-[4-(2,3-Dichloro-4-fluoro-phenyl)-piperazin-1-yl]-butoxy}-1H-[1,8]naphthyridin-2-one]: 4.6 nM.
In turn, `O=c1ccc2ccc(OCCCCN3CCN(c4ccccc4-c4ccccc4)CC3)nc2[nH]1` [Example B26, 7-[4-(4-Biphenyl-2-yl-piperazin-1-yl)-butoxy]-1H-[1,8]naphthyridin-2-one] came in with an inhibitory constant (Ki) of 11.5 nM.
Still for that read-out and setting: next, `COc1cccc(N2CCN(CCCCOc3ccc4ccc(=O)[nH]c4n3)CC2)c1C` [Example B27, 7-{4-[4-(3-Methoxy-2-methyl-phenyl)-piperazin-1-yl]-butoxy}-1H-[1,8]naphthyridin-2-one]: 9.8 nM; `O=c1ccc2ccc(OCCCCN3CCN(c4cccc(F)c4Cl)CC3)nc2[nH]1` [Example B28, 7-{4-[4-(2-Chloro-3-fluoro-phenyl)-piperazin-1-yl]-butoxy}-1H-[1,8]naphthyridin-2-one]: 1.4 nM; `O=c1ccc2ccc(OCCCCN3CCN(c4cccc(C5CC5)n4)CC3)nc2[nH]1` [Example B29, 7-{4-[4-(6-Cyclopropyl-pyridin-2-yl)-piperazin-1-yl]-butoxy}-1H-[1,8]naphthyridin-2-one]: 1 nM.
Turning to `O=c1ccc2ccc(OCCCCN3CCN(c4ncccn4)CC3)nc2[nH]1` [Example B30, 7-[4-(4-Pyrimidin-2-yl-piperazin-1-yl)-butoxy]-1H-[1,8]naphthyridin-2-one], the affinity, expressed as Ki, was 28 nM.
On the same count and under the same terms, next, `COc1ccnc(N2CCN(CCCCOc3ccc4ccc(=O)[nH]c4n3)CC2)n1` [Example B31, 7-{4-[4-(4-Methoxy-pyrimidin-2-yl)-piperazin-1-yl]-butoxy}-1H-[1,8]naphthyridin-2-one]: 69.5 nM; `O=c1ccc2ccc(OCCCCN3CCN(c4cccc5c4CCC5)CC3)nc2[nH]1` [Example B32, 7-[4-(4-Indan-4-yl-piperazin-1-yl)-butoxy]-1H-[1,8]naphthyridin-2-one]: less than 2 nM.
On the same count and under the same terms, the value for `O=C1CCCc2cccc(N3CCN(CCCCOc4ccc5ccc(=O)[nH]c5n4)CC3)c21` [Example B35, 7-{4-[4-(8-Oxo-5,6,7,8-tetrahydro-naphthalen-1-yl)-piperazin-1-yl]-butoxy}-1H-[1,8]naphthyridin-2-one] was 0.4 nM; that for `CC1(C)CCc2cccc(N3CCN(CCCCOc4ccc5ccc(=O)[nH]c5n4)CC3)c2C1=O` [Example B36, 7-{4-[4-(7,7-Dimethyl-8-oxo-5,6,7,8-tetrahydro-naphthalen-1-yl)-piperazin-1-yl]-butoxy}-1H-[1,8]naphthyridin-2-one] was 3 nM.

The assay is the same for the next values; noted with them: D2 Ki (nM), Table 2; 0.4 nM [3H]spiperone, CHO-hD2L membranes.
`CC1(C)COc2c(cccc2N2CCN(CCCCOc3ccc4ccc(=O)[nH]c4n3)CC2)C1` [Example B17′, 7-{4-[4-(3,3-Dimethyl-chroman-8-yl)-piperazin-1-yl]-butoxy}-1H-[1,8]naphthyridin-2-one] showed a Ki of 1.4 nM.
Same read-out and setting: the value for `O=c1ccc2ccc(OCCCCN3CCN(c4cccc5c4CCOC5)CC3)nc2[nH]1` [Example B18′, 7-[4-(4-Isochroman-5-yl-piperazin-1-yl)-butoxy]-1H-[1,8]naphthyridin-2-one] was 1.4 nM; that for `O=c1ccc2ccc(OCCCCN3CCN(c4cccc5c4COCC5)CC3)nc2[nH]1` [Example B19′, 7-[4-(4-Isochroman-8-yl-piperazin-1-yl)-butoxy]-1H-[1,8]naphthyridin-2-one] was 1 nM.
The same measure, in the same setting: next, `O=c1ccc2ccc(OCCCCN3CCN(c4cccc5c4OCCCO5)CC3)nc2[nH]1` [Example B20′, 7-{4-[4-(3,4-Dihydro-2H-benzo[b][1,4]dioxepin-6-yl)-piperazin-1-yl]-butoxy}-1H-[1,8]naphthyridin-2-one]: 1 nM; `O=c1ccc2ccc(OCCCCN3CCN(c4cccc5cccnc45)CC3)nc2[nH]1` [Example B21′, 7-[4-(4-Quinolin-8-yl-piperazin-1-yl)-butoxy]-1H-[1,8]naphthyridin-2-one]: 1 nM; `O=c1ccc2ccc(OCCCCN3CCN(c4cccc5ncccc45)CC3)nc2[nH]1` [Example B22′, 7-[4-(4-Quinolin-5-yl-piperazin-1-yl)-butoxy]-1H-[1,8]naphthyridin-2-one]: 1 nM.
Compound `O=c1ccc2ccc(OCCCCN3CCN(c4cccc5nccnc45)CC3)nc2[nH]1` [Example B23′, 7-[4-(4-Quinoxalin-5-yl-piperazin-1-yl)-butoxy]-1H-[1,8]naphthyridin-2-one] returned a Ki of 5.5 nM.
The same measure, in the same setting: the value for `O=c1ccc2ccc(OCCCCN3CCN(c4cccc5[nH]ccc45)CC3)nc2[nH]1` [Example B24′, 7-{4-[4-(1H-Indol-4-yl)-piperazin-1-yl]-butoxy}-1H-[1,8]naphthyridin-2-one] was 0.8 nM.
Same read-out and setting: the value for `O=c1ccc2ccc(OCCCCN3CCN(c4cccc5sccc45)CC3)nc2[nH]1` [Example B25′, 7-[4-(4-Benzo[b]thiophen-4-yl-piperazin-1-yl)-butoxy]-1H-[1,8]naphthyridin-2-one] was 1 nM.
The same measure, in the same setting: the value for `O=c1ccc2ccc(OCCCCN3CCN(c4cccc5ccoc45)CC3)nc2[nH]1` [Example B26′, 7-[4-(4-Benzofuran-7-yl-piperazin-1-yl)-butoxy]-1H-[1,8]naphthyridin-2-one] was 1.2 nM; that for `CC(=O)N1CCCc2c(N3CCN(CCCCOc4ccc5ccc(=O)[nH]c5n4)CC3)cccc21` [Example B27′, 7-{4-[4-(1-Acetyl-1,2,3,4-tetrahydro-quinolin-5-yl)-piperazin-1-yl]-butoxy}-1H-[1,8]naphthyridin-2-one] was 17.9 nM.
Consider `CN1CCCc2c1cccc2N1CCN(CCCCOc2ccc3ccc(=O)[nH]c3n2)CC1` [Example B28′, 7-{4-[4-(1-Methyl-1,2,3,4-tetrahydro-quinolin-5-yl)-piperazin-1-yl]-butoxy}-1H-[1,8]naphthyridin-2-one], for which the inhibitory constant (Ki) came out at 7.5 nM.
`CCN1CCCc2c1cccc2N1CCN(CCCCOc2ccc3ccc(=O)[nH]c3n2)CC1` [Example B29′, 7-{4-[4-(1-Ethyl-1,2,3,4-tetrahydro-quinolin-5-yl)-piperazin-1-yl]-butoxy}-1H-[1,8]naphthyridin-2-one] registered an inhibition constant Ki of 31.9 nM.
Same read-out and setting: next, `COc1ccc2cccc(N3CCN(CCCCOc4ccc5ccc(=O)[nH]c5n4)CC3)c2n1` [Example B30′, 7-{4-[4-(2-Methoxy-quinolin-8-yl)-piperazin-1-yl]-butoxy}-1H-[1,8]naphthyridin-2-one]: 1 nM.
`CCOc1ccc2cccc(N3CCN(CCCCOc4ccc5ccc(=O)[nH]c5n4)CC3)c2n1` [Example B31′, 7-{4-[4-(2-Ethoxy-quinolin-8-yl)-piperazin-1-yl]-butoxy}-1H-[1,8]naphthyridin-2-one] yielded a Ki of 0.6 nM.
Turning to `CN(C)c1ccc2cccc(N3CCN(CCCCOc4ccc5ccc(=O)[nH]c5n4)CC3)c2n1` [Example B32′, 7-{4-[4-(2-Dimethylamino-quinolin-8-yl)-piperazin-1-yl]-butoxy}-1H-[1,8]naphthyridin-2-one], the affinity corresponds to a Ki of 1.4 nM.
`CNc1ccc2cccc(N3CCN(CCCCOc4ccc5ccc(=O)[nH]c5n4)CC3)c2n1` [Example B33′, 7-{4-[4-(2-Methylamino-quinolin-8-yl)-piperazin-1-yl]-butoxy}-1H-[1,8]naphthyridin-2-one] registered a Ki of 4.2 nM.
Regarding `O=c1ccc2ccc(OCCCCN3CCN(c4cccc5ncc(F)cc45)CC3)nc2[nH]1` [Example B34′, 7-{4-[4-(3-Fluoro-quinolin-5-yl)-piperazin-1-yl]-butoxy}-1H-[1,8]naphthyridin-2-one], the Ki was determined as 0.7 nM.
Turning to `O=c1ccc2ccc(OCCCCN3CCN(c4cccc5cc(F)cnc45)CC3)nc2[nH]1` [Example B35′, 7-{4-[4-(3-Fluoro-quinolin-8-yl)-piperazin-1-yl]-butoxy}-1H-[1,8]naphthyridin-2-one], affinity was put at a Ki of 0.4 nM.
The same measure, in the same setting: next, `O=c1ccc2ccc(OCCCCN3CCN(c4cccc5ccc(=O)[nH]c45)CC3)nc2[nH]1` [Example B36′, 7-{4-[4-(2-Oxo-1,2-dihydro-quinolin-8-yl)-piperazin-1-yl]-butoxy}-1H-[1,8]naphthyridin-2-one]: 12.9 nM.

A word on the Ki: it is the equilibrium dissociation constant of an inhibitor or competing ligand from its target. Higher therefore signals a looser hold on the target.
